PubChem BioAssay AID1671194 (National Center for Advancing Translational Sciences (NCATS), 2021)
In all, about 140,000 compounds went through this assay and about 240 (0.17%) were called active. The inconclusive results got no clear call from the source; some entries with a clear call stand among them for comparison. The call rests on the fitted dose curve; in most records, active means well fitted inhibition curve with a large enough effect; inconclusive means small, poorly fitted or top-dose-only effect; inactive means no such curve, though single readings can be large or run the other way. A potency beside an inconclusive call is a rough fit, not a confirmed value.

Assay: Primary qHTS assay for inhibitors of alpha-synuclein gene (SNCA) expression; further: nearly all actives have a fitted effect of over 45% in size
Conditions: HEK-293 SNCA-luciferase knock-in, luminescence, 24 h; series mostly up to 57.2 µM
Potency means the concentration at half of the fitted maximal effect; tags describe the fitted curve by direction and shape.

Potency, inactive:
CCO[C@H]1CN(C(=O)Cc2c(C)nn(-c3ccccc3)c2C)C[C@@H]1O
COCCNC(=O)c1cn2ccnc(-c3ccc(OC)cc3)c2n1
COc1cccc(N2C(=O)OCC23CCN(CCCc2ccccc2)C3)c1 (stereo unspecified)
Cc1cc2cc(-c3c(C)noc3C)nc(N3CCN(c4ccccn4)CC3)c2o1
CC(C)=CC(=O)N1CC[C@H](NC(=O)NC(C)C)[C@H]1C(=O)N[C@H](Cc1c[nH]c2ccccc12)C(N)=O
N#Cc1ccc(S(=O)(=O)N2CC(C(=O)NC3CCCCC3)C3(CCOCC3)C2)cc1 (stereo unspecified)
COCC(=O)N1CCCC(C(=O)N2CCC3(CC2)CC(=O)Nc2ccccc2O3)C1 (stereo unspecified)
CCc1noc(-c2cccn3c(CNC(=O)c4ccccn4)nnc23)n1
COc1cccc(COC2CN(CCc3ccccc3)C(=O)CN(C(=O)c3cc(C)nn3C)C2)c1 (stereo unspecified)
Cc1ccc(C(=O)N2CCCn3cc(-c4cccc(C#N)c4)nc32)cc1
CC1(COc2ccccc2)COc2ccc(C(=O)N3CCN(c4ccccn4)CC3)cc2N1 (stereo unspecified)
COc1ccc(C2(C(=O)N[C@H]3COC[C@H]3Cc3cc(C)no3)CCCC2)cc1
COc1cccc(CNC(=O)c2cn3cc(-c4ccccc4)sc3n2)c1
CC(C)CN(CCNC(=O)c1cn(C)c2ccc(S(=O)(=O)N3CCCC3)cc2c1=O)CC(C)C
Cc1nc2ncccn2c1C(=O)N[C@H]1CCOC[C@H]1C1CCOCC1

Potency, inconclusive:
COc1ccc(Nc2ccnc(N3CCN(C(=O)Cc4cccc(Cl)c4)CC3)n2)cc1 17.8 µM [inhibitor, partial curve, poor fit]
CC1=Nc2cc(C(=O)NCCc3ccc(Cl)cc3)ccc2Sc2c(C)ccc(C)c21 28.2 µM [inhibitor, single point]
CC(=O)Nc1ccc(NC(=O)CCS(=O)(=O)c2ccc3c(c2)CC(=O)N3C)cc1 25.1 µM [inhibitor, partial curve, poor fit]
CC1CCCCN1CCCNC(=O)c1cc(Sc2ccc(Cl)cc2)nc2ccccc12 (stereo unspecified) 6.31 µM [inhibitor, full curve]
C=CCNC(=O)[C@@H]1Cc2cn(Cc3cc(C)on3)c3cccc(c23)[C@H](CC(C)C)N1 11.2 µM [inhibitor, partial curve]
COCCC1(C(=O)O)CCCN(Cc2ccc3c(c2)CC(C)(C)O3)C1 (stereo unspecified) 8.91 µM [inhibitor, single point]
COc1ccc(NC(=O)c2cnc(N3CCCCC3)c3ccccc23)cc1Cl 25.1 µM [inhibitor, partial curve, poor fit]
O=C(O)c1ccc(-c2cc3cccnc3c(-c3ccc4nonc4c3)n2)cc1 19.2 µM [inhibitor, partial curve, poor fit]
C=CCNC(=O)C[C@@H]1CCN(C(=O)Nc2cccc(C(=O)OCC)c2)C[C@@H]1CC 56.2 µM [inhibitor, single point]
Cc1cc(F)ccc1NC(=O)CCC1CCCN(C(=O)Cc2ccc3c(c2)OCO3)C1 (stereo unspecified) 39.8 µM [inhibitor, single point]
O=C([C@@H]1C[C@H](F)CN1C(=O)NCc1cccc(F)c1)N1CCCCC1 12.6 µM [inhibitor, partial curve, poor fit]
Cc1ccc(CNC(=O)C2CCN(C(=O)c3cc4c(=O)[nH]c(C)cn4n3)CC2)cc1 5.62 µM [inhibitor, single point]
Cn1cc2c3c(cccc31)CN(C(=O)Cc1ccccc1F)CC2 39.8 µM [inhibitor, single point]
CCOc1ccccc1NC(=O)c1c(NCc2sccc2C)sc2c1CCC(C)C2 (stereo unspecified) 8.91 µM [inhibitor, partial curve, poor fit]
COc1ccc(-c2[nH]nc3ncc(-c4cncnc4)nc23)cc1F 56.2 µM [inhibitor, single point]
O=C(c1ccc(Cl)nc1)N1CCN(Cc2ccccc2-c2ccccc2F)CC1 14.1 µM [inhibitor, partial curve]
COc1cccc(N2C(=O)NC(=NC3CCCCC3)C23CCCN(Cc2ccccc2)C3)c1 (stereo unspecified) 0.708 µM [inhibitor, full curve, poor fit]
O=C(Cc1ccc(Cl)cc1)N1CCC2(CC1)N(c1ccccc1)C(=O)CS2(=O)=O 5.01 µM [inhibitor, single point]
CN(Cc1ccccc1)C(=O)C1=NO[C@@H]2CN(Cc3ccc(F)cc3)C[C@H]12 11.2 µM [inhibitor, full curve]
CC(C)CNC(=O)c1cc(C2CC2)nc2c1c(C1CCCN1)nn2-c1ccccc1 (stereo unspecified) 39.8 µM [inhibitor, single point]
CCc1ccc(-n2nc(C)c3c(C)cc(=O)n(CC(=O)Nc4ccccc4C(=O)OC)c32)cc1 14.1 µM [inhibitor, partial curve, poor fit]
CCc1cccc(NC(=O)CCS(=O)(=O)c2ccc3nc(C)sc3c2)c1 10 µM [inhibitor, partial curve, poor fit]
COCC(=O)N[C@@H]1CN(Cc2sccc2C)CC[C@@H]1c1n[nH]c(C)n1 28.2 µM [inhibitor, single point]
O=C(CCc1cnccn1)N1CCOC(CCCc2ccccc2)C1 (stereo unspecified) 8.91 µM [inhibitor, single point]
Cc1nn2c(c1-c1ccccc1Oc1ccccc1)N(CC1CCOCC1)CCC2 7.94 µM [inhibitor, full curve, poor fit]
Cc1ccccc1CNC(=O)Nc1ccc2c(c1)N(C)C(=O)c1ccccc1S2 17.8 µM [inhibitor, partial curve, poor fit]
